Results on 6 molecules are retold here after the supplement of paper PMC10300432.

Recombinant human monoclonal antibodies (heavy:light variable regions). ELISA EC50 on the named antigen, from 10 µg/ml down; IC50 against spike pseudovirus on HT1080-ACE2 cells, 48 h; lower = stronger. Calls: IC50 above 1,000 ng/ml = non-neutralizing; EC50 above 1,000 ng/ml = non-binder. A value given as a limit tells only on which side of the number the result lay.

The target of experiment [1] is SARS-CoV-2 Omicron BA.1 spike pseudovirus. Put plainly: pseudovirus neutralization IC50; higher = weaker neutralization. As for the experimental part: (§1)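 Single-round luciferase reporter pseudovirus mixed with antibody dilutions and put on HT1080-ACE2 clone 14 cells for 48 h; signal relative to no-antibody wells, four-parameter fit.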
Experiment [2] deals with SARS-CoV-2 Omicron BA.4/5 spike pseudovirus. Described as above. As for the experimental part: as §1
Experiment [3] has as its target SARS-CoV-2 Wuhan-Hu-1 spike pseudovirus. The description is as above. The procedure:
as §1

Experiment [4] has as its target SARS-CoV-2 Wuhan-Hu-1 spike receptor-binding domain. Kind of experiment: ELISA binding EC50; higher = weaker binding; ELISA of recombinant human antibody on coated antigen, from 10 µg/ml in fourfold dilutions; four-parameter fit. (In general: In an ELISA, binding on a coated surface is turned into a signal by an enzyme label.)

B1: C5137 (protein)
chain 1: QVQLVQSGAELKKPGASVKVSCKTSGYTFDRYGLSWVRQAPGQGLEWLGWISAKNGDTKSVQKLQGRVTMTTDTFTNTAYLELRSLRSDDSAVYYCARVLFYYDRSGNYLPEDYFDYWGQGTLVTVSS
chain 2: QSVLTQPPSVSGAPGQRVTISCTGSSANIGAGYDVHWYQQLPGTAPRLLIYGNTNRPSGVPDRFSGSKSGTSASLAITGLQAEDEGDYYCQSYDSSLSALYVFGTGTKVTVL
In the case of B1, the “pseudovirus neutralization IC50” value in experiment [1] is 0.744 µg/mL; in experiment [2], 0.716 µg/mL; in experiment [3], 0.141 µg/mL. Also, the “ELISA binding EC50” value in experiment [4] was 0.00344 µg/mL.

B2: C5138 (protein)
chain 1: QVQLVESGGGVVQPGRSLRLSCAASGFTFANYGMHWVRQAPGKGLEWVAVISFDGSDTYYADSVKGRFTISRDNSKNRLYLQMNSLRPEDTALYYCAKGEWYASSWFGVFFDYWGQGTLVTVSS
chain 2: EIVMTQSPTILSVSPGERATLSCRASQNVSNNLAWYQQKPGQAPSLLIYDASTRATGFPARFSGSGSGTEFTLTVSSLQSEDFAVYYCQQYTKRPYTFGQGTKLEIK
For B2, the “pseudovirus neutralization IC50” value in experiment [1], in experiment [2] and in experiment [3] was above 1 µg/mL in each case. Further, the “ELISA binding EC50” value in experiment [4] turned out to be 0.0181 µg/mL.

B3: C5055 (protein)
chain 1: QVQLQESGPGLVKPSETLSLTCTVSGVSISTYYWSWIRQSPGKGLEWIGFLYYSGTTNYNPSLKSRVAISVDTSKNQFSLKLTSLTAADTAVYYCARGRGNCSGGTCYGGDYFDSWGQGTLVTVSS
chain 2: DIQMTQSPSTLSASVGDRVTITCRASQSIGSWLAWYQQRPGKAPKLLIYDASSLESGVPSRFSGSGSGTEFTLTISSLQPDDFATYYCQQYDTYFTFGPGTKVDIK
Take B3: the entries for the “pseudovirus neutralization IC50” value in experiment [2] and in experiment [3] were 0.351 µg/mL and 0.00236 µg/mL, respectively. Further, the “ELISA binding EC50” value in experiment [4] was 0.00332 µg/mL.

B4: C5328 (protein)
chain 1: EVQLVESGGGLVQPGGSLRLSCAASGITFSRYWMHWVRQAPGKGLVWVSRINSDGSIRSYADSVKGRFTISRDNAKNTLFLQMNSLRAEDTAVYYCARDLTYGGNVDYWGQGTLVTVSS
chain 2: NFMLTQPHSVSESPGKTVTISCTGSGGSIASNYVQWYQQRPGSAPTTVIYEDNQRPSGVPDRFSGSIDSSSNSASLTISGLKTEDEADYYCQSYDGSIHVVFGGGTKLTVL
For B4, the “ELISA binding EC50” value in experiment [4] was 0.00572 µg/mL.

B5: C5139 (protein)
chain 1: QVQLVQSGSELKKPGASVKVSCKASGYSFTSYALNWVRQAPGQGLEWMGWINTNTGIPTYAQGLTGRFVFSLDTSVSTAYLQISSLEAVDTAVYYCSRERYSNSWYLPEIYDYWGQGTLVTVSS
chain 2: EIVMTQSPATLSVSPGERATLSCRASQSVSSNLAWYQQKPGQAPRLLIYGASTRATGIPARFSGSGSGTEFTLTISSLQSEDFAVYYCKQYSSWPTFGQGTKLEIK
For B5, the “pseudovirus neutralization IC50” value in experiment [1], in experiment [2] and in experiment [3] was above 1 µg/mL each time. In addition, the “ELISA binding EC50” value in experiment [4] was 0.0116 µg/mL.

B6: C5036 (protein)
chain 1: QVQLVQSGAEVKKPGSSVKVSCKASGGTFTNFAISWVRQAPGRGLEWMGGIIRLFDSEKYAQKFQGRMTITADESTNTAYMELSRLTFEDTGVYYCARAPPLTLRTTVTISAFDVWGPGTMVTVSS
chain 2: DIVMTQSPDSLAVSLGERATINCKSSQSVLYSSNNKNYLAWYQQKPGQPPKLLIYWASTRESGVPDRFRGSGSGTDFTLTITSLQAEDVAVYYCQHYYGTPLFGGGTKVEIK
As for B6, the “pseudovirus neutralization IC50” value in experiment [1] was above 1 µg/mL; in experiment [2], above 1 µg/mL; in experiment [3] it was 0.00168 µg/mL. Further, the “ELISA binding EC50” value in experiment [4] worked out at 0.00456 µg/mL.
